{
  "source": "the supplement of paper PMC8728848",
  "binders": {"B1": {"name": "FimA-N1 (Actinomyces oris) (protein)", "chain": "MHHHHHHSSGVDLGTENLYFQSNATETPNYGNIKTDATGSLVIHKHLTGGGKDIGTPTGTAQNADDKGPAVEGVVFTAYPITDINLKDPAGWDTISNLSRTGVPDSACANPAAPTLGAHQFGTPKVSPATTKEGLATITEMPVQAYLVCETTTPGDIVQKAKPFVVTIPHPNTAAGADGQWIYDVNVYPKNEAIDVDKTIQAQK"}},
  "assay_in_all_cases": "glycan array binding signal (z-score within array); higher = stronger binding",
  "conditions_in_all_cases": "glycan notation: IUPAC condensed, linker removed",
  "key": {"[1]": {"biological_target": "Gal(b1-4)GlcNAc(b1-3)Gal(b1-4)GlcNAc(b1-3)Gal(b1-4)GlcNAc(b1-3)Gal(b1-4)GlcNAc(b1-2)Man(a1-3)[Gal(b1-4)GlcNAc(b1-3)Gal(b1-4)GlcNAc(b1-3)Gal(b1-4)GlcNAc(b1-3)Gal(b1-4)GlcNAc(b1-2)Man(a1-6)]Man(b1-4)GlcNAc(b1-4)[Fuc(a1-6)]GlcNAc", "outline": "(§1)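 Negative Z-scores can be read as non-binding. The Z-score is calculated within each array and then averaged across arrays of one protein sequence at different concentrations or buffers and across linkers. Arrays, 3228 in all, were curated from the Consortium for Functional Glycomics database and kept only where the protein sequence was available.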"}, "[2]": {"biological_target": "Gal(b1-4)GlcNAc(b1-3)Gal(b1-4)GlcNAc(b1-3)Gal(b1-4)GlcNAc(b1-3)Gal(b1-4)GlcNAc(b1-2)[Gal(b1-4)GlcNAc(b1-3)Gal(b1-4)GlcNAc(b1-3)Gal(b1-4)GlcNAc(b1-3)Gal(b1-4)GlcNAc(b1-6)]Man(a1-6)[Gal(b1-4)GlcNAc(b1-3)Gal(b1-4)GlcNAc(b1-3)Gal(b1-4)GlcNAc(b1-3)Gal(b1-4)GlcNAc(b1-2)Man(a1-3)]Man(b1-4)GlcNAc(b1-4)[Fuc(a1-6)]GlcNAc", "outline": "as §1"}, "[3]": {"biological_target": "Gal(b1-4)GlcNAc(b1-3)Gal(b1-4)GlcNAc(b1-3)Gal(b1-4)GlcNAc(b1-3)Gal(b1-4)GlcNAc(b1-3)Gal(b1-4)GlcNAc(b1-2)Man(a1-3)[Gal(b1-4)GlcNAc(b1-3)Gal(b1-4)GlcNAc(b1-3)Gal(b1-4)GlcNAc(b1-3)Gal(b1-4)GlcNAc(b1-3)Gal(b1-4)GlcNAc(b1-2)Man(a1-6)]Man(b1-4)GlcNAc(b1-4)GlcNAc", "outline": "as §1"}, "[4]": {"biological_target": "Gal(b1-4)GlcNAc(b1-3)Gal(b1-4)GlcNAc(b1-3)Gal(b1-4)GlcNAc(b1-3)Gal(b1-4)GlcNAc(b1-3)Gal(b1-4)GlcNAc(b1-2)Man(a1-3)[Gal(b1-4)GlcNAc(b1-3)Gal(b1-4)GlcNAc(b1-3)Gal(b1-4)GlcNAc(b1-3)Gal(b1-4)GlcNAc(b1-3)Gal(b1-4)GlcNAc(b1-2)Man(a1-6)]Man(b1-4)GlcNAc(b1-4)[Fuc(a1-6)]GlcNAc", "outline": "as §1"}, "[5]": {"biological_target": "Gal(b1-4)GlcNAc(b1-3)Gal(b1-4)GlcNAc(b1-3)Gal(b1-4)GlcNAc(b1-3)Gal(b1-4)GlcNAc(b1-3)Gal(b1-4)GlcNAc(b1-2)[Gal(b1-4)GlcNAc(b1-3)Gal(b1-4)GlcNAc(b1-3)Gal(b1-4)GlcNAc(b1-3)Gal(b1-4)GlcNAc(b1-3)Gal(b1-4)GlcNAc(b1-6)]Man(a1-6)[Gal(b1-4)GlcNAc(b1-3)Gal(b1-4)GlcNAc(b1-3)Gal(b1-4)GlcNAc(b1-3)Gal(b1-4)GlcNAc(b1-3)Gal(b1-4)GlcNAc(b1-2)Man(a1-3)]Man(b1-4)GlcNAc(b1-4)[Fuc(a1-6)]GlcNAc", "outline": "as §1"}, "[6]": {"biological_target": "Gal(b1-4)GlcNAc(b1-3)Gal(b1-4)GlcNAc(b1-3)Gal(b1-4)GlcNAc(b1-3)Gal(b1-4)GlcNAc(b1-3)Gal(b1-4)GlcNAc(b1-3)Gal(b1-4)GlcNAc(b1-2)Man(a1-3)[Gal(b1-4)GlcNAc(b1-3)Gal(b1-4)GlcNAc(b1-3)Gal(b1-4)GlcNAc(b1-3)Gal(b1-4)GlcNAc(b1-3)Gal(b1-4)GlcNAc(b1-3)Gal(b1-4)GlcNAc(b1-2)Man(a1-6)]Man(b1-4)GlcNAc(b1-4)GlcNAc", "outline": "as §1"}, "[7]": {"biological_target": "Gal(b1-4)GlcNAc(b1-3)Gal(b1-4)GlcNAc(b1-3)GalNAc", "outline": "as §1"}, "[8]": {"biological_target": "Gal(b1-4)GlcNAc(b1-3)Gal(b1-4)GlcNAc(b1-3)[Gal(b1-4)GlcNAc(b1-3)Gal(b1-4)GlcNAc(b1-6)]GalNAc", "outline": "as §1"}, "[9]": {"biological_target": "Gal(b1-4)GlcNAc(b1-3)Gal(b1-4)GlcNAc(b1-6)[Gal(b1-3)]GalNAc", "outline": "as §1"}, "[10]": {"biological_target": "Gal(b1-4)GlcNAc(b1-3)Gal(b1-4)[Fuc(a1-3)]GlcNAc(b1-3)Gal(b1-4)[Fuc(a1-3)]GlcNAc", "outline": "as §1"}, "[11]": {"biological_target": "Gal(b1-4)GlcNAc(b1-3)GalNAc", "outline": "as §1"}, "[12]": {"biological_target": "Gal(b1-4)GlcNAc(b1-3)[Fuc(a1-3)GlcNAc(b1-6)]Gal(b1-4)Glc", "outline": "as §1"}, "[13]": {"biological_target": "Gal(b1-4)GlcNAc(b1-3)[Gal(b1-4)GlcNAc(b1-6)]Gal(b1-4)GlcNAc", "outline": "as §1"}, "[14]": {"biological_target": "Gal(b1-4)GlcNAc(b1-3)[GlcNAc(b1-6)]Gal(b1-4)GlcNAc", "outline": "as §1"}, "[15]": {"biological_target": "Gal(b1-4)GlcNAc(b1-6)Gal(b1-4)GlcNAc", "outline": "as §1"}, "[16]": {"biological_target": "Gal(b1-4)GlcNAc(b1-6)GalNAc", "outline": "as §1"}, "[17]": {"biological_target": "Gal(b1-4)GlcNAc(b1-6)[Gal(b1-3)]GalNAc", "outline": "as §1"}, "[18]": {"biological_target": "Gal(b1-4)GlcNAc(b1-6)[Gal(b1-4)GlcNAc(b1-3)]GalNAc", "outline": "as §1"}, "Gal(b1-4)GlcNAc6P": {"biological_target": "Gal(b1-4)GlcNAc6P", "outline": "as §1"}, "Gal(b1-6)Gal": {"biological_target": "Gal(b1-6)Gal", "outline": "as §1"}, "Gal3S(b1-3)GalNAc": {"biological_target": "Gal3S(b1-3)GalNAc", "outline": "as §1"}, "Gal3S(b1-3)GlcNAc": {"biological_target": "Gal3S(b1-3)GlcNAc", "outline": "as §1"}, "[19]": {"biological_target": "Gal3S(b1-3)[Fuc(a1-4)]GlcNAc", "outline": "as §1"}},
  "note": "This is one part of the list.",
  "data": [
    {"binder": "B1", "values": [
      {"measurement": "glycan array binding signal (z-score)", "setting": "[1]", "result": 0.705},
      {"measurement": "glycan array binding signal (z-score)", "setting": "[2]", "result": 1.54},
      {"measurement": "glycan array binding signal (z-score)", "setting": "[3]", "result": 3.32},
      {"measurement": "glycan array binding signal (z-score)", "setting": "[4]", "result": -0.107},
      {"measurement": "glycan array binding signal (z-score)", "setting": "[5]", "result": 0.224},
      {"measurement": "glycan array binding signal (z-score)", "setting": "[6]", "result": -0.08},
      {"measurement": "glycan array binding signal (z-score)", "setting": "[7]", "result": -0.278},
      {"measurement": "glycan array binding signal (z-score)", "setting": "[8]", "result": 0.015},
      {"measurement": "glycan array binding signal (z-score)", "setting": "[9]", "result": -0.24},
      {"measurement": "glycan array binding signal (z-score)", "setting": "[10]", "result": -0.434},
      {"measurement": "glycan array binding signal (z-score)", "setting": "[11]", "result": 0.025},
      {"measurement": "glycan array binding signal (z-score)", "setting": "[12]", "result": -0.38},
      {"measurement": "glycan array binding signal (z-score)", "setting": "[13]", "result": -0.398},
      {"measurement": "glycan array binding signal (z-score)", "setting": "[14]", "result": -0.117},
      {"measurement": "glycan array binding signal (z-score)", "setting": "[15]", "result": 0.067},
      {"measurement": "glycan array binding signal (z-score)", "setting": "[16]", "result": 0.16},
      {"measurement": "glycan array binding signal (z-score)", "setting": "[17]", "result": -0.133},
      {"measurement": "glycan array binding signal (z-score)", "setting": "[18]", "result": -0.079},
      {"measurement": "glycan array binding signal (z-score)", "setting": "Gal(b1-4)GlcNAc6P", "result": 0.125},
      {"measurement": "glycan array binding signal (z-score)", "setting": "Gal(b1-6)Gal", "result": 0.276},
      {"measurement": "glycan array binding signal (z-score)", "setting": "Gal3S(b1-3)GalNAc", "result": 0.644},
      {"measurement": "glycan array binding signal (z-score)", "setting": "Gal3S(b1-3)GlcNAc", "result": -0.055},
      {"measurement": "glycan array binding signal (z-score)", "setting": "[19]", "result": 0.165}
    ]}
  ]
}
